This note sets out measurements from PubChem BioAssay AID1347073 (National Center for Advancing Translational Sciences (NCATS), 2019).

The whole screen tested about 45,000 compounds, of which about 200 (0.44%) were called active. Not shown: some 7% with an inconclusive outcome. Calls follow the shape of the dose curve; as a rule, active = well fitted activation curve with a large enough effect; inconclusive = small, poorly fitted or top-dose-only effect; inactive = no such curve, though single readings can be large or run the other way. The list shows a part of the results.

The experiment in a line: qHTS of TDP-43 Inhibitors: NCGC Sytravon Library Screen. Also: 0% is about no effect; nearly all actives have a fitted effect of over 55% in size. The following applies: yeast TDP-43 toxicity rescue, BacTiter-Glo growth, 24 h; series mostly up to 46.1 µM; growth rescue (activation): at the top concentration. A digest of the protocol: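 TDP-43-expressing yeast, pregrown in raffinose, seeded at OD600 0.02 in galactose medium with compound for 24 hr at 30 deg C. Growth read by BacTiter-Glo luminescence, so rescue of toxicity appears as activation.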
Turning to `Cc1ccc(S(=O)(=O)NCCNC(=O)c2ccc(C)nc2)cc1`, the “growth rescue (activation)” value was inactive: -0.319%.
As for `Cc1ccccc1C(=O)N1CCN(c2ccc(NC(=O)c3ccc([N+](=O)[O-])o3)cc2)CC1`, the “growth rescue (activation)” value is inactive: -6%.
For the compound `O=C(Nc1cccnc1)C1(c2ccccc2)CCCC1`, the “growth rescue (activation)” value was inactive: 39.3%.
The result for `COc1ccccc1C(=O)NC(=S)Nc1ccc(NC(=O)c2ccco2)cc1` reads inactive: 8.01%; that for `O=C(CSc1nc2ccccc2[nH]1)NCCc1ccc(Cl)cc1`, inactive: -7.48%.
Turning to `CN1C(=O)/C(=C/c2cc3c(cc2Br)OCO3)NC1=S`, the “growth rescue (activation)” value is inactive: 9.06%.
The result for `Cc1sc2ncnc(N[C@@H](Cc3ccccc3)C(=O)O)c2c1C` reads inactive: -11%; that for `Oc1ccc(N2CCN(c3nc(-c4cccs4)nc4ccccc34)CC2)cc1`, inactive: 21.8%; that for `CN(CCc1cn[nH]c1)Cc1nc(C(c2ccccc2)c2ccccc2)no1`, inactive: 9.8%.
In the case of `O=C(Nc1cccnc1)C1Cc2c(-c3cccc(F)c3)ccnc2O1` (centres undefined), the “growth rescue (activation)” value was inactive: 7.71%.
`CCOC(=O)CNC(=O)C1(/C=C/c2ccccc2)CC(=O)N1c1ccc(OC)cc1` (centres undefined): the “growth rescue (activation)” value was inactive: -4.3%.
The result for `Cc1ccc(C(=O)Nc2nc3ccc(S(C)(=O)=O)cc3s2)cc1C` reads inactive: 0.677%; that for `CC1=C(C(=O)NCc2ccccc2)C(c2cccnc2)n2ncnc2N1` (centres undefined), inactive: 5.07%.
With `Cc1ccc(/C([O-])=C(/C(=S)NCc2ccccc2)[n+]2cccc(CO)c2)cc1[N+](=O)[O-]`, the “growth rescue (activation)” value was inactive: -2.92%.
The result for `CCn1nc(C(=O)NNS(=O)(=O)c2cc(/C=C/C(=O)O)cc(OC)c2OC)c2ccccc2c1=O` reads inactive: 22.6%.
On to `COC(=O)CSc1ccc(S(=O)(=O)N2CCOCC2)cc1[N+](=O)[O-]`, for which the “growth rescue (activation)” value was inactive: 19.2%.
As for `CC1CCCN(C(=O)CN2C(=O)C(C)Oc3ccccc32)C1` (centres undefined), the “growth rescue (activation)” value is inactive: 6.62%.
In the case of `O=C(NCC(=O)N1CCN(S(=O)(=O)/C=C/c2ccccc2)CC1)c1ccc(Cl)cc1`, the “growth rescue (activation)” value was inactive: -2.05%.
As to `O=C(NC1CCCCC1)C(c1ccco1)N(C(=O)c1csnn1)c1cccc(F)c1` (centres undefined), the “growth rescue (activation)” value was inactive: -2.6%.
Take `O=C(CCc1c[nH]c2ccccc12)N1CCCC1`: the “growth rescue (activation)” value is inactive: 7.82%.
Regarding `CC(C)c1cc(=O)n2[nH]c(N)nc2n1`, the “growth rescue (activation)” value was inactive: -22.8%.
For `CN(C(=O)c1ccc(N2CCCCC2)c([N+](=O)[O-])c1)C1CCS(=O)(=O)C1` (centres undefined), the “growth rescue (activation)” value was inactive: 6.19%.
For `CC1CCN(c2c(NCc3ccc(C(=O)NCc4ccccc4)cc3)c(=O)c2=O)CC1`, the “growth rescue (activation)” value was inactive: 0.0613%.
With `Cc1ccc2nc(Nc3nc(C)cc(-c4ccccc4)n3)[nH]c(=O)c2c1` the figure was inactive: 5.72%; with `Cc1nn(C)cc1C(=O)Nc1ccc2c(c1)OCCO2`, inactive: -2.27%; with `COc1ccccc1NC(=O)c1ccc(NS(=O)(=O)c2ccc(F)c(Cl)c2)cc1`, inactive: 11.7%.
For the compound `CC(C)OC(=O)CC1C(=O)NCCN1C(=S)NC(=O)c1ccccc1Cl` (centres undefined), the “growth rescue (activation)” value was inactive: -25.1%.
For `Cc1csc(NC(=S)NC(=O)c2ccccc2)n1`, the “growth rescue (activation)” value is inactive: 10.3%.
The result for `Cc1[nH][nH]c(=O)c1C(c1ccc(-c2cccc(Cl)c2)o1)c1c(C)[nH][nH]c1=O` reads inactive: 26.6%; that for `Cc1cc(-c2ccccc2)nc(SCC(=O)N2CCCC2)n1`, inactive: 2.97%.
For `CCN(CC)S(=O)(=O)c1cccc(NC(=O)CN2C(=O)NC3(CCC(C)CC3)C2=O)c1` (centres undefined), the “growth rescue (activation)” value is inactive: 22.4%.
Regarding `CCN(C(=O)c1nn(-c2ccc(OC)cc2)c(=O)c2c1c1ccccc1n2C)c1ccc(OC)cc1`, the “growth rescue (activation)” value was inactive: 4.81%.
Regarding `CCc1cccc(CC)c1NC(=O)COC(=O)c1ccc(F)c(S(=O)(=O)N(CC)CC)c1`, the “growth rescue (activation)” value was inactive: -3.01%.
The result for `CC(=O)Nc1ccc(-c2csc(N/N=C(/C)c3ccccc3)n2)cc1` reads inactive: 11.7%; that for `CCc1ccc(C(=O)COC(=O)CNC(=O)COc2ccccc2)cc1`, inactive: 6.1%; that for `O=C(NCC1CC1)c1ccc2sc([C@H]3C[C@H](O)[C@@H](CO)O3)nc2c1`, inactive: 3.66%.
Turning to `O=C(CCCOc1ccc(Cl)cc1Cl)NCCCn1ccnc1`, the “growth rescue (activation)” value is inactive: -1.15%.
With `O=S(=O)(c1ccc(NC(=S)NCCc2ccccc2)cc1)N1CCOCC1` the figure was inactive: 10.9%; with `COc1cc([N+](=O)[O-])ccc1NC(=S)N1CCN(c2ccccn2)CC1`, inactive: -8.42%; with `CCN1CCN(C(=O)CN(C)S(=O)(=O)c2cc(C)ccc2OC)CC1`, inactive: -12.7%.
Take `O=C(CSCc1ccc(Cl)cc1)N/N=C/c1ccco1`: the “growth rescue (activation)” value is inactive: 13.1%.
The result for `COc1ccc(C(CC(=O)O)NC(=O)Cc2ccccc2)cc1OC` (centres undefined) reads inactive: -9.79%; that for `O=C(NC1CCN(C(=O)Nc2cccc(Cl)c2)CC1)c1ccccc1`, inactive: 8.61%.
In the case of `O=C(NNC(=S)NC(=O)c1cccc([N+](=O)[O-])c1)c1ccc(Br)cc1`, the “growth rescue (activation)” value is inactive: 5.84%.
The result for `Cc1ccccc1C(=O)NCCCc1ccccc1` reads inactive: 26.1%; that for `O=c1[nH]ncn2cccc12`, inactive: 8.85%; that for `COc1ccc(OC)c(Cc2nnc(CCC(=O)NCc3ccsc3)o2)c1`, inactive: 10.1%.
Consider `CCOC(=O)N1CCN(CC(=O)Nc2ccc(Oc3ccccc3)cc2)CC1`, for which the “growth rescue (activation)” value is inactive: 35.9%.
Take `O=C(CN1C(=O)CCC1=O)NC(=O)NC1CCCC1`: the “growth rescue (activation)” value is inactive: 2.5%.
The result for `Cc1ccc(-n2c(SCc3ccc(C(=O)O)cc3)nnc2-c2ccncc2)cc1` reads inactive: -10.3%.
With `CCOC(=O)c1cccc(NC(=O)CCn2cccc2)c1`, the “growth rescue (activation)” value was inactive: 1.61%.
The result for `Cc1cc(=O)[nH]c(SCC(=O)c2ccc(O)c(O)c2)n1` reads inactive: -3.87%.
On to `O=C(CN1C(=O)C2CCCCC2C1=O)Nc1ccccc1C(=O)O` (centres undefined), for which the “growth rescue (activation)” value is inactive: 3.59%.
The result for `CCc1nc2ccc(C(=O)N(C)CCN(C)C)cn2c1N(C)Cc1cc2ccccc2s1` reads inactive: -7.07%.
